Data on eight molecules can be found in publication PMC9298916, “The Discovery and Structure‐Activity Evaluation of (+)‐Floyocidin B and Synthetic Analogs” (Chemmedchem, 2021).

This test concerns M. smegmatis ATCC607. Kind of test: Micro-broth dilution growth inhibition, M. smegmatis (ATP quantification). The note with it: M. smegmatis ATCC607 (Msm), at least 80% growth inhibition, NA = no activity at 128 µg/mL.
Where [1] appears, read: Mycolicibacterium smegmatis, ATCC607, 48 h, read-out: MIC.

Values after ≈ are worked out from the molar mass of the structure shown. Read-outs that look alike come from different tables or passages of the source.

By MIC is commonly meant the least concentration at which growth counts as inhibited.

Consider `CCCC=Cc1ccc2c(c1)C(=O)C1(CC=C(C)C)OC1C2O` (centres unmarked) [compound 35], for which the MIC under setting [1] came to 32 µg/mL (≈ 102 µM).
As to `CCCC=Cc1cc2c(cn1)C(O)C1OC1(CC=C(C)C)C2=O` (stereo not drawn) [ent‐27], the MIC (48 h) is 16 µg/mL (≈ 51.1 µM).
On the same count and under the same terms, under `CCCC=Cc1ccc2c(c1)C(=O)C1(CC=C(C)C)OC1C2O` (stereo not drawn) [ent‐35] stands 32 µg/mL (≈ 102 µM).
Regarding `CCC/C=C/C=C/C1=C(CO)[C@@H](O)[C@H]2O[C@@]2(CC=C(C)C)C1=O` [compound 3, (1R,5R,6R)‐3‐((1E,3E)‐Hepta‐1,3‐dien‐1‐yl)‐5‐hydroxy‐4‐(hydroxymethyl)‐1‐(3‐methylbut‐2‐en‐1‐yl)‐7‐oxabicyclo[4.1.0]hept‐3‐en‐2‐one], under setting [1], the MIC turned out to be 32 µg/mL (≈ 100 µM).
On the same count and under the same terms, the result for `CCCC=Cc1cc2c(cn1)C(O)C1OC1(CC=C(C)C)C2=O` (stereo not drawn) [ent‐4] reads 32 µg/mL (≈ 102 µM).
As to `CCC/C=C/c1cc2c(cn1)[C@@H](O)[C@H]1O[C@@]1(CC=C(C)C)C2=O` [compound 4, (1aR,2R,7aR)‐2‐Hydroxy‐7 a‐(3‐methylbut‐2‐en‐1‐yl)‐5‐((E)‐pent‐1‐en‐1‐yl)‐1 a,7 a‐dihydrooxireno[2,3‐g]isoquinolin‐7(2H)‐one], the MIC under setting [1] came out at 64 µg/mL (≈ 204 µM).
Still for that read-out and setting: under `CCC/C=C/c1ccc2c(c1)C(=O)[C@]1(CC=C(C)C)O[C@@H]1[C@H]2O` [compound 36] stands 4 µg/mL (≈ 12.8 µM); under `CCC/C=C/c1cc2c(cn1)[C@H](O)[C@H]1O[C@@]1(CC=C(C)C)C2=O` [compound 27, (1aR,2S,7aR)‐2‐Hydroxy‐7 a‐(3‐methylbut‐2‐en‐1‐yl)‐5‐((E)‐pent‐1‐en‐1‐yl)‐1 a,7 a‐dihydrooxireno[2,3‐g]isoquinolin‐7(2H)‐one], 16 µg/mL (≈ 51.1 µM).
